According to ChEMBL document CHEMBL1201862, “PubChem BioAssay data set” (2004):

The compounds below were run on NCI-H322M (assay: growth of human tumour cells (NCI), 48 h).

SMILES | GI50
O=C1c2ccccc2C(=O)c2c(OCC3CO3)ccc(OCC3CO3)c21 (centres undefined) | inactive: 8.73 µM
O=C(c1ccccc1)c1cccc(C(=O)c2ccccc2)c1 | inactive: > 100 µM
CC1Oc2cc3c(-c4c(O)cc(O)c5c(O)c6c(cc45)OC(C)C(C)C6=O)c(O)cc(O)c3c(O)c2C(=O)C1C (centres undefined) | active: 0.371 µM
NC(=O)c1ncn(C2OC(CO)C(O)C2O)c1O (centres undefined) | inactive: > 100 µM
NCC1CCN(c2nc3ccccc3c3c2CCCC3)CC1 | inactive: 6.62 µM
COc1ccc(OC)c(/C=C/c2ccnc3ccccc23)c1 | active: 0.553 µM
CC(C)Cn1cnc2c(SCc3ccccn3)nc(N)nc21 | inactive: > 100 µM
O=C(O)C12C3CCC(O3)C1(C(=O)O)C1CCC2O1 (centres undefined) | inactive: > 100 µM
O=C(/C=C/c1ccccc1)c1cc(C(=O)/C=C/c2ccccc2)c(O)cc1O | inactive: > 100 µM
C=CC[C@@H]1C=C[C@@H](C(=O)OC)n2c(=O)n(-c3ccccc3)c(=O)n21 | inactive: > 100 µM
CCCCC/N=C/c1c(O)c(O)c(C(C)C)c2cc(C)c(-c3c(C)cc4c(C(C)C)c(O)c(O)c(/C=N/CCCCC)c4c3O)c(O)c12 | inactive: 82.6 µM
Cc1ccc(C)c(N2C(=O)C(=O)C(c3nc4ccccc4o3)/C(=N/N)C2=O)c1 (centres undefined) | inactive: > 100 µM
CN(C(=O)C1=CCC2(CC1)OCCO2)c1ccccc1OS(=O)(=O)C(F)(F)F | inactive: > 100 µM
COc1cc2c(c(O)c1OC)C(=O)[C@@H]1CCC(=O)N1C2c1ccccc1 (some centres undefined) | inactive: > 100 µM
CC1(CC(=O)OC(C#C[Si](C)(C)C)Cc2ccccc2)OCCO1 (centres undefined) | inactive: > 100 µM
O=[N+]([O-])c1ccc(NN/N=N/c2ccc(-c3nc4ccccc4[nH]3)cc2)c([N+](=O)[O-])c1 | inactive: 62.2 µM
O=Cc1ccc2c(c1)CC1(C2)Cc2ccc(C=O)cc2C1 | inactive: 52.2 µM
COC(=O)c1ccc(CCC2=CC(=O)C=CC2=O)cc1 | inactive: 26.2 µM
[N-]=[N+]=Nc1ccc(S(=O)(=O)Oc2cc(OS(=O)(=O)c3ccc(N=[N+]=[N-])cc3)cc(OS(=O)(=O)c3ccc(N=[N+]=[N-])cc3)c2)cc1 | inactive: > 100 µM
CCOC(=O)C1CCC(=O)N1C(=O)c1ccccc1 (centres undefined) | inactive: > 100 µM
COc1ccccc1C1c2cc3c(cc2OC(O)(CO)C1C(=O)O)OCO3.COc1ccccc1C1c2cc3c(cc2OC2(O)COC(=O)C12)OCO3 (centres undefined) | inactive: > 100 µM
Cc1cc(N(CCC#N)S(C)(=O)=O)ccc1C=O | inactive: > 100 µM
NC(=O)C(c1ccccc1)N1OC2C(=O)N(Cc3ccccc3)C(=O)C2C1c1cccc(Oc2ccc(Cl)cc2)c1 (centres undefined) | inactive: 41.3 µM

SMILES | GI50
COC(=O)CCC(=O)NC1C2CC3CC(C2)CC1C3 (centres undefined) | inactive: > 100 µM
CC(=O)OC1=c2ccccc2=C(O)C2C1C=NN2C(C)=O (centres undefined) | inactive: > 100 µM
COc1ccc(/C=C2/CCS(=O)(=O)c3ccc(C)cc3C2=O)cc1OC | inactive: 14.4 µM
O=C1NC(=O)C(CCC(=O)c2cccc3ccccc23)C(=O)N1 | inactive: > 100 µM
C[C@H](CO)C1=CC(C#C[Si](C)(C)C)N(C(=O)Oc2ccccc2)c2ccccc21 (some centres undefined) | inactive: 13.8 µM
COc1cc(/C=C2\NC(=O)N(/C=C3\C(=O)Oc4ccccc4C3=O)C2=O)ccc1O | inactive: > 100 µM
N#Cc1ccccc1NC(=O)/C(=N\Nc1ccc([N+](=O)[O-])cc1)C1C(=O)NC(=O)NC1=O | inactive: > 100 µM
O=C1c2ccccc2C(=O)C1(Cl)C1(S(=O)(=O)O)c2ccccc2-c2ccccc21 | inactive: > 100 µM
CC1=NNC(=O)C1C1C=C(c2c[nH]c3ccccc23)OC1=O (centres undefined) | inactive: > 100 µM
O=C(NNC(=S)NCc1ccccc1)c1csc(NC(=S)NC2CCCCC2)n1 | inactive: 39.6 µM
CCOC(=O)/C(C(=O)Nc1cccc(Cl)c1)=C(/N)N1CCOCC1 | inactive: > 100 µM
COC(=O)CCC1(O)C=CC(=O)C=C1 | inactive: > 100 µM
O=C1Nc2ccccc2SC1=C(C(=O)c1ccccc1)C(=O)c1ccccc1 | inactive: 30.9 µM
COc1cccc(N2C(=O)[C@H]3[C@H]4CC(C(C)(C)C)CC[C@H]4c4c([nH]c5ccccc45)[C@H]3C2=O)c1 (some centres undefined) | inactive: 19.6 µM
CCOC(=O)c1ccc(/C(C)=N/NC(N)=S)cc1 | inactive: > 100 µM
CNC(=O)C(C)NC(=O)C(Cc1ccccc1)NC(=O)c1ccccc1 (centres undefined) | inactive: > 100 µM
CCCCCCCCCC[C@@H](O)[C@@H]1CC[C@H]([C@H]2CC[C@@H]([C@@H](O)CCCCCCCCCC[C@H]3CC(CC(C)=O)C(=O)O3)O2)O1 (some centres undefined) | inactive: 17.4 µM
COc1cc(OC)c(/C=C/c2cnc3ccccc3n2)c(OC)c1 | inactive: > 10 µM
N#CC1=CNc2sccc2S1(=O)=O | inactive: > 100 µM
CS(=O)(=O)N1CC(CCl)c2ccc(NCCN)cc21 (centres undefined) | inactive: 40.8 µM
NC(CCC(=O)O)C(=O)N1CCN(c2nc(N3CCCC3)c3nc(Cl)c(NCc4ccccc4)nc3n2)CC1 (centres undefined) | inactive: 15.8 µM
COC(=O)C1=C(OC(=O)/C(=C/c2ccccc2)c2ccc(Cl)cc2)C(C(=O)OC)[C@@]2(O)[C@@H](C(=O)OC)[C@H](C)C[C@@H]1[C@@H]2C(=O)OC (some centres undefined) | inactive: > 100 µM
CCc1nnc(S)n1/N=C\c1ccc(-c2ccccc2[N+](=O)[O-])o1 | inactive: > 100 µM

SMILES | GI50
Cc1ccc(-n2nnc3c(NNc4ccccc4)n[nH]c(=O)c32)cc1 | inactive: > 100 µM
O=C1CSC(c2ccccc2)N1c1nc2cc3sc(N4C(=O)CSC4c4ccccc4)nc3cc2s1 (centres undefined) | inactive: 30.2 µM
Cc1ccc(N2C3=C(CC4=C2CC(C)(C)CC4=O)C(=O)CC(C)(C)C3)cc1 | inactive: > 100 µM
c1ccc2c(c1)ccc1nc3ccccn3c12 | inactive: > 100 µM
O=C1OC(c2ccccc2)=N/C1=C/NC(CO)C(=O)O (centres undefined) | inactive: > 100 µM
CCCCCCCCCCCCNC(C)=O | inactive: 20.3 µM
COc1c(C(=O)c2ccc([N+](=O)[O-])cc2)cc(C(C)(C)C)cc1C(C)(C)C | inactive: 70.1 µM
O=C(N/N=C(COc1ccc(Cl)cc1)\N=C\c1ccncc1)c1ccncc1 | inactive: > 100 µM
Cc1cc(Cl)ccc1Nc1nc2c(s1)C(=O)c1ccccc1C2=O | inactive: 4.42 µM
C1=N\CCN2CCN(CC/N=C\c3ccc(cc3)OCc3cccc(n3)COc3ccc/1cc3)CC2 | inactive: > 50 µM
Cc1cccc(C(C)C)c1NC(=O)C(=O)CC(=O)c1sc(Nc2ccccc2Cl)nc1C | inactive: 57.9 µM
COc1cc(Br)c(CC2=NCCc3cc(OC)c(OC)cc32)cc1OC | inactive: 87.1 µM
CCCC(=O)OC[n+]1cccc(-c2c(COC(=O)NC(C)C)c(COC(=O)NC(C)C)c3n2CCC3)c1 | inactive: > 100 µM
O=C(O)C(C1NCCS1)N1C(=O)c2ccccc2C1=O (centres undefined) | inactive: > 100 µM
C[N+]1(C)C/C(=C\c2ccc(O)cc2)C(=O)/C(=C/c2ccc(O)cc2)C1 | inactive: 82.6 µM
COC(=O)C1=COc2c(n(C)c3ccccc23)-c2ccccc21 | inactive: > 100 µM
COc1cc(Nc2cnc3cc(C(F)(F)F)ccc3n2)cc(OC)c1OC | inactive: > 100 µM
N=C(NCc1ccccc1)N/N=C\c1ccnc2ccccc12 | inactive: 15.1 µM
COc1cc2c(cc1O)C(C)Cc1cc3c(cc1N(C)CC2)OCO3 (centres undefined) | inactive: 7.26 µM
CN(/C(=N\O)c1ccccc1)c1ccccc1 | inactive: 75.7 µM
COc1ccc2oc3c(ccc[n+]3C)c(=O)c2c1 | inactive: > 100 µM
N#CC(=C1C=CC(=NO)C=C1)c1ccc(Cl)cc1 | inactive: 24.5 µM
Cc1c(C#N)c(=N)oc2ccccc12 | inactive: > 100 µM

SMILES | GI50
CC1(C)CC(=O)C(CC(C(=O)C(=O)Nc2cc(C(F)(F)F)ccc2Cl)C(=O)c2ccco2)C(=O)C1 (centres undefined) | inactive: > 100 µM
CC(=O)c1cc(C)n2c1CS[C@@H]2c1ccccc1 | inactive: 92.7 µM
COc1cc2c(cc1OC)C1(c3ccc(Cl)cc3)ON=C(c3ccccc3)N1CS2 (centres undefined) | inactive: > 100 µM
C/C(CC(=O)Nc1cc(C)ccc1C)=N\NC(=O)c1ccncc1 | inactive: > 100 µM
CS/C(=N/C(=O)c1ccccc1Cl)SCCS/C(=N\C(=O)c1ccccc1Cl)SC | inactive: > 100 µM
C=C=C(CC(CC(=C)Br)(C(=O)OC)C(=O)OC)S(=O)(=O)c1ccccc1 | inactive: 12.7 µM
CC(C)=CCC/C(C)=C/COC(C)(C)C1=CCC(C)CC1.CC(C)=CCC/C(C)=C/COC1CC(C)CCC1=C(C)C (centres undefined) | inactive: > 100 µM
OCCNCCOc1ccc(/C(=C(/Cl)c2ccccc2)c2ccccc2)cc1 | inactive: 12.4 µM
C/C(=N\NS(=O)(=O)c1ccccc1)c1ccc(Cl)c(Cl)c1 | inactive: > 100 µM
CCOc1ccccc1NC(=O)CCC(=O)NN | inactive: > 100 µM
CC(C)(C)c1cc(C(O)(C(F)(F)F)C(F)(F)F)c2c(c1)C(C(F)(F)F)(C(F)(F)F)OC(C)(C(C)(C)C)N2 (centres undefined) | inactive: 4.35 µM
COC(=O)c1c(OC(C)=O)ccc2c1c1c(n2C)C(=O)c2ccccc2C1=O | inactive: 23.6 µM
COc1ccc(C2S/C(=C\c3cccc(OC)c3)C(=O)N2NC(=O)Cc2ccccc2)cc1 (centres undefined) | inactive: > 100 µM
O=C(O)c1nc(-c2ccc(Cl)c(Cl)c2)nc2ccc(Cl)cc12 | inactive: > 100 µM
COC(=O)[C@@]12C3=NO[C@]1(C(=O)OC)C(O[Si](C)(C)C(C)(C)C)[C@@H](OC(C)=O)[C@@H](OC(C)=O)[C@@H]2[C@@H](OCc1ccccc1)CC3 (some centres undefined) | inactive: > 100 µM
OCc1ccccc1O[C@H]1O[C@H](CO)[C@@H](O)[C@H](O)[C@H]1O | inactive: > 100 µM
C/C(=N\Nc1nc2ccccc2o1)c1cc2ccccc2cn1 | active: < 0.0228 µM
O=C1/C(=C/c2ccccc2)CCCc2ccccc21 | inactive: 20.7 µM
c1ccc2cc(CNCCOCCOCCNCc3ccc4ccccc4c3)ccc2c1 | inactive: 1.59 µM
COc1ccc(-c2cc(=O)c3c(O)c(OC)c(O)cc3o2)cc1O | inactive: 11.6 µM

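Briefly, cells in 96-well plates were exposed to five compound concentrations for 48 h, and endpoints were estimated by linear interpolation. The concentration for 50% growth inhibition is given as GI50.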 Active and inactive are the calls of the source. No stated cut-off is given here; in the data, active = GI50 up to about 1.1 µM and inactive = higher.
